# Assay results published in the supplement of paper PMC8728848.
# Some of the results follow.
# B1: GS13455A-bfa-343-25-343 (Bacteroides fragilis) (protein)
# chain: KDEIQIVDQDTSWQMDNKYIEEDIREQLGIDPFTDLVYLGYYGNPYTQLEAINDLVNTTLVGKNELSFKVKVTKPYKEDIKVNLMKEDKLVTDFPEMAEGIPLFPSENCTFEGGVLKAGELETTVKLTLKDVEKLNNLSGYVMAIKLTMEGSHEHLAIARTRSSYFVKLNLSIRLDNIDSSNKKIEGKGFNKEISFKSDIRPDKLGSLNDGNFTANNWYTSNANNYLTIILPEKQSLKGFRLDTNTSPSGSYMLKSCRVMVETPDGNWVNHGVFDRKSMDGIAYISFKKPVECTKVRFENMMAFNGRFSVDVNEVTAFR
# Experiments:
# Test in all cases: glycan array binding signal (z-score within array); higher = stronger binding
# Conditions in all cases: glycan notation: IUPAC condensed, linker removed
# GalNAc(b1-3)Gal = biological target: GalNAc(b1-3)Gal
# How it was run: (§1)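 Negative Z-scores can be read as non-binding. The Z-score is calculated within each array and then averaged across arrays of one protein sequence at different concentrations or buffers and across linkers. Arrays, 3228 in all, were curated from the Consortium for Functional Glycomics database and kept only where the protein sequence was available.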
# [1] = biological target: GalNAc(b1-3)Gal(a1-4)Gal(b1-4)GlcNAc
# How it was run: as §1
# [2] = biological target: GalNAc(b1-3)Gal(a1-4)Gal(b1-4)GlcNAc(b1-3)Gal(b1-4)Glc
# How it was run: as §1
# [3] = biological target: GalNAc(b1-3)Gal(a1-6)Gal(b1-4)Glc
# How it was run: as §1
# GalNAc(b1-3)GalNAc = biological target: GalNAc(b1-3)GalNAc
# How it was run: as §1
# GalNAc(b1-3)GlcNAc = biological target: GalNAc(b1-3)GlcNAc
# How it was run: as §1
# GalNAc(b1-4)Gal(b1-4)Glc = biological target: GalNAc(b1-4)Gal(b1-4)Glc
# How it was run: as §1
# GalNAc(b1-4)GlcNAc = biological target: GalNAc(b1-4)GlcNAc
# How it was run: as §1
# [4] = biological target: GalNAc(b1-4)GlcNAc(b1-2)Man
# How it was run: as §1
# [5] = biological target: GalNAc(b1-4)GlcNAc(b1-2)Man(a1-3)[GalNAc(b1-4)GlcNAc(b1-2)Man(a1-6)]Man(b1-4)GlcNAc(b1-4)GlcNAc
# How it was run: as §1
# [6] = biological target: GalNAc(b1-4)GlcNAc(b1-3)GalNAc(b1-4)GlcNAc
# How it was run: as §1
# GalNAc(b1-4)GlcNAc6S = biological target: GalNAc(b1-4)GlcNAc6S
# How it was run: as §1
# GalNAc(b1-6)GalNAc = biological target: GalNAc(b1-6)GalNAc
# How it was run: as §1
# GalNAc3S(b1-4)GlcNAc = biological target: GalNAc3S(b1-4)GlcNAc
# How it was run: as §1
# GalNAc3S(b1-4)GlcNAc3S = biological target: GalNAc3S(b1-4)GlcNAc3S
# How it was run: as §1
# [7] = biological target: GalNAc3S(b1-4)[Fuc(a1-3)]GlcNAc
# How it was run: as §1
# GalNAc4S6S(b1-4)GlcNAc = biological target: GalNAc4S6S(b1-4)GlcNAc
# How it was run: as §1
# GalNAc6S(b1-4)GlcNAc = biological target: GalNAc6S(b1-4)GlcNAc
# How it was run: as §1
# Glc(a1-4)Glc = biological target: Glc(a1-4)Glc
# How it was run: as §1
# [8] = biological target: Glc(a1-4)Glc(a1-4)Glc(a1-4)Glc
# How it was run: as §1
# Glc(a1-6)Glc(a1-6)Glc = biological target: Glc(a1-6)Glc(a1-6)Glc
# How it was run: as §1
# [9] = biological target: Glc(a1-6)Glc(a1-6)Glc(a1-6)Glc
# How it was run: as §1
# Glc(b1-4)Glc = biological target: Glc(b1-4)Glc
# How it was run: as §1
# Glc(b1-6)Glc = biological target: Glc(b1-6)Glc
# How it was run: as §1
# GlcA(b1-3)Gal = biological target: GlcA(b1-3)Gal
# How it was run: as §1
# GlcA(b1-3)GlcNAc = biological target: GlcA(b1-3)GlcNAc
# How it was run: as §1
# GlcA(b1-6)Gal = biological target: GlcA(b1-6)Gal
# How it was run: as §1
# [10] = biological target: GlcA3S(b1-3)Gal(b1-4)GlcNAc(b1-2)Man
# How it was run: as §1
# [11] = biological target: GlcA3S(b1-3)Gal(b1-4)GlcNAc(b1-3)Gal(b1-4)Glc
# How it was run: as §1
# [12] = biological target: GlcNAc(a1-3)Gal(b1-4)GlcNAc
# How it was run: as §1
# [13] = biological target: GlcNAc(a1-4)Gal(b1-3)GlcNAc
# How it was run: as §1
# [14] = biological target: GlcNAc(a1-4)Gal(b1-4)GalNAc
# How it was run: as §1
# [15] = biological target: GlcNAc(a1-4)Gal(b1-4)GlcNAc
# How it was run: as §1
# [16] = biological target: GlcNAc(a1-4)Gal(b1-4)GlcNAc(b1-3)Gal(b1-4)Glc
# How it was run: as §1
# [17] = biological target: GlcNAc(a1-4)Gal(b1-4)GlcNAc(b1-3)Gal(b1-4)GlcNAc
# How it was run: as §1
# [18] = biological target: GlcNAc(a1-4)Gal(b1-4)GlcNAc(b1-3)Gal(b1-4)GlcNAc(b1-3)Gal(b1-4)GlcNAc
# How it was run: as §1
# [19] = biological target: GlcNAc(a1-4)Gal(b1-4)GlcNAc(b1-3)Gal(b1-4)[Fuc(a1-3)]GlcNAc(b1-3)Gal(b1-4)[Fuc(a1-3)]GlcNAc
# How it was run: as §1
# [20] = biological target: GlcNAc(a1-6)Gal(b1-4)GlcNAc
# How it was run: as §1
binder,measurement,setting,value
B1,glycan array binding signal (z-score),GalNAc(b1-3)Gal,0.005
same,glycan array binding signal (z-score),[1],1.43
same,glycan array binding signal (z-score),[2],-0.285
same,glycan array binding signal (z-score),[3],-0.371
same,glycan array binding signal (z-score),GalNAc(b1-3)GalNAc,0.329
same,glycan array binding signal (z-score),GalNAc(b1-3)GlcNAc,-0.525
same,glycan array binding signal (z-score),GalNAc(b1-4)Gal(b1-4)Glc,1.08
same,glycan array binding signal (z-score),GalNAc(b1-4)GlcNAc,-0.125
same,glycan array binding signal (z-score),[4],-0.619
same,glycan array binding signal (z-score),[5],1.75
same,glycan array binding signal (z-score),[6],1.21
same,glycan array binding signal (z-score),GalNAc(b1-4)GlcNAc6S,-0.178
same,glycan array binding signal (z-score),GalNAc(b1-6)GalNAc,0.191
same,glycan array binding signal (z-score),GalNAc3S(b1-4)GlcNAc,-0.39
same,glycan array binding signal (z-score),GalNAc3S(b1-4)GlcNAc3S,-0.507
same,glycan array binding signal (z-score),[7],-0.412
same,glycan array binding signal (z-score),GalNAc4S6S(b1-4)GlcNAc,-0.138
same,glycan array binding signal (z-score),GalNAc6S(b1-4)GlcNAc,-0.162
same,glycan array binding signal (z-score),Glc(a1-4)Glc,-0.288
same,glycan array binding signal (z-score),[8],0.002
same,glycan array binding signal (z-score),Glc(a1-6)Glc(a1-6)Glc,-0.516
same,glycan array binding signal (z-score),[9],-0.604
same,glycan array binding signal (z-score),Glc(b1-4)Glc,-0.247
same,glycan array binding signal (z-score),Glc(b1-6)Glc,-0.811
same,glycan array binding signal (z-score),GlcA(b1-3)Gal,-0.323
same,glycan array binding signal (z-score),GlcA(b1-3)GlcNAc,0.404
same,glycan array binding signal (z-score),GlcA(b1-6)Gal,0.968
same,glycan array binding signal (z-score),[10],-0.005
same,glycan array binding signal (z-score),[11],-0.631
same,glycan array binding signal (z-score),[12],-0.633
same,glycan array binding signal (z-score),[13],-0.198
same,glycan array binding signal (z-score),[14],-0.142
same,glycan array binding signal (z-score),[15],-1.13
same,glycan array binding signal (z-score),[16],0.059
same,glycan array binding signal (z-score),[17],-0.573
same,glycan array binding signal (z-score),[18],-0.41
same,glycan array binding signal (z-score),[19],1.64
same,glycan array binding signal (z-score),[20],-0.399
